# The list shows a part of the results. Values were computed here from the reads of four pooled replicates and scatter widely.
# Target: T1, Pho4 (S. cerevisiae) (UniProt P07270)
# T1 sequence: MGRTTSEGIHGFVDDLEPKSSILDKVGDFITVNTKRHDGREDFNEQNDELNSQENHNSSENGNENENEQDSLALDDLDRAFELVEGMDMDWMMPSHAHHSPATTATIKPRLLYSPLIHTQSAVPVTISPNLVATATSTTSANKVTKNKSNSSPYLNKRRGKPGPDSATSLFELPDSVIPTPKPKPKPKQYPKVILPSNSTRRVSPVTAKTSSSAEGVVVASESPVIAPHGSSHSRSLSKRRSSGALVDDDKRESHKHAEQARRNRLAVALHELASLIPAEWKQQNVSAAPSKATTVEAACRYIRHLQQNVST
# Assay: relative binding free energy (BET-seq); higher = weaker binding
# Settings: reference: library average
row,Sequence,relative binding free energy [kcal/mol]
1,GTTTACACGTGTTGGC,0.14
2,TCAGTCACGTGGGCAT,-0.03
3,GAAGTCACGTGAGGAG,0.35
4,GTGAGCACGTGCGTCG,-0.1
5,GGCGGCACGTGATGCG,-0.07
6,CTGGGCACGTGCGGGC,-0.25
7,TAATGCACGTGAGGTG,0.29
8,TAAGTCACGTGTGAGT,-0.02
9,TGCTGCACGTGGTGAT,-0.05
10,ACGGGCACGTGGCAGG,-0.05
11,GGGTGCACGTGAGTAT,0.29
12,TCGGCCACGTGGTGTG,-0.25
13,AAATTCACGTGGGTCT,0.19
14,TTTAGCACGTGAGGTC,0.15
15,ATATGCACGTGGAATT,0.11
16,ATTGGCACGTGGTCGT,-0.19
17,GGGCACACGTGGGGCA,-0.15
18,GTATCCACGTGTGGGG,-0.01
19,TTTCGCACGTGGGCGA,-0.17
20,AGAGACACGTGGGTGC,0.02
21,TAGAACACGTGTGATG,0.02
22,AGGTTCACGTGAAGCT,0.25
23,GGATGCACGTGAGGAA,0.28

row,Sequence,relative binding free energy [kcal/mol]
1,GGTGTCACGTGAAACG,0.31
2,GTGGTCACGTGTTCAA,0.17
3,GTTTCCACGTGTAGGG,0.05
4,GACTGCACGTGTGGTT,0.06
5,GTGTGCACGTGAGGTT,0.24
6,GGTAACACGTGATTGA,0.14
7,TGTGTCACGTGTGATA,0.16
8,GGGTTCACGTGAAGCA,0.35
9,CGTGTCACGTGTTAGA,0.12
10,GGGATCACGTGGAGGT,0.19
11,TTAGTCACGTGCATTA,0.08
12,TAGGACACGTGGGGAT,0.02
13,GTATACACGTGTGCTG,0.07
14,TTTTGCACGTGGACGA,0.14
15,GCGTGCACGTGGAGGA,-0.04
16,TAGTGCACGTGTAGTT,0.06
17,GACGTCACGTGTGTGC,0.26
18,GTTTACACGTGCCTTG,0.15
19,TGGGGCACGTGGAATA,0.01
20,CGGAGCACGTGCGTTG,-0.17
21,CATGTCACGTGCAGTG,0.1
22,TGCGTCACGTGGGTGT,-0.05
23,ATAGTCACGTGAGGTC,0.24

row,Sequence,relative binding free energy [kcal/mol]
1,GTGTTCACGTGCTCTT,0.31
2,TGGAACACGTGGGAAG,-0.07
3,AGTGTCACGTGGGATG,0.01
4,TGTTGCACGTGGGCAC,-0.18
5,TGGTACACGTGGAGCG,0.09
6,ATAATCACGTGTATTT,0.12
7,GGGCTCACGTGGTTGC,0.34
8,AGGGTCACGTGTAGAT,0.28
9,TTATACACGTGGTTAA,-0.04
10,GAGCGCACGTGATGTG,-0.05
11,ATTGACACGTGGGGGC,-0.19
12,GGTAACACGTGTTCTT,0.12
13,TAATCCACGTGGGGTT,-0.04
14,AGGTGCACGTGGCAAG,-0.14
15,AAAGGCACGTGGTATA,-0.09
16,AGGATCACGTGTTAGT,0.17
17,GTTTTCACGTGGCTGT,0.41
18,TTAAACACGTGTCTTT,0.11
19,AGTGACACGTGGACGG,0.04
20,TGTAGCACGTGGTCCT,-0.15
21,TGGTACACGTGTCCGG,0.15
22,TAGGACACGTGGGAGA,-0.02
23,GGCTGCACGTGTGAAG,0.35

row,Sequence,relative binding free energy [kcal/mol]
1,TGCGACACGTGGAGCG,0.17
2,TTATTCACGTGGATTA,0.27
3,GGGCGCACGTGGCGTG,-0.22
4,TGCTTCACGTGTTCGG,0.22
5,AGGGGCACGTGAAGGT,0.12
6,ACGAGCACGTGGGGTA,-0.24
7,TTCTGCACGTGGTTCT,-0.02
8,GTATGCACGTGCTTGG,-0.07
9,ATGGACACGTGTGATG,0.13
10,TGGTACACGTGTCTTG,0.11
11,GGTTTCACGTGTAAAT,0.32
12,TTCTTCACGTGGAATG,0.26
13,TGTGGCACGTGTGGTC,-0.04
14,ATAGGCACGTGCAGTG,-0.07
15,TCGGGCACGTGAGTGA,0.17
16,CTGGCCACGTGTGTTG,-0.17
17,TGTTCCACGTGTAGTT,0.25
18,TTGTACACGTGTAGGG,0.16
19,TTTCACACGTGATTGT,0.06
20,GTTGACACGTGTACGG,0.07
21,ATGCACACGTGCGGTT,0.03
22,TTAGGCACGTGAATTC,0.22
23,AGGGTCACGTGTTATT,0.08

row,Sequence,relative binding free energy [kcal/mol]
1,TTGAGCACGTGAGGGA,0.21
2,GTGTGCACGTGTAGTT,0.03
3,GTGATCACGTGTGGAA,0.11
4,ACGTGCACGTGCAGGT,-0.13
5,CAAGTCACGTGCGTGT,0.06
6,GAAGGCACGTGCATTG,-0.01
7,TCGTACACGTGATATT,0.26
8,GTGCTCACGTGGGGGG,0.11
9,GTGATCACGTGTGATC,0.35
10,GGTGTCACGTGGATAA,0.2
11,GGAGACACGTGGCGGG,-0.09
12,TGTTTCACGTGGTTCT,0.33
13,AGTTGCACGTGAGTCT,0.15
14,TGGTACACGTGCGTGC,-0.05
15,TATGGCACGTGATACG,0.02
16,TTTTACACGTGCGTTG,0.11
17,TTGGCCACGTGATTAT,0.18
18,TCAGTCACGTGTGTAG,0.07
19,GTCATCACGTGTGAGT,0.23
20,GGAGGCACGTGCTTGT,-0.18
21,TATCACACGTGTTGTG,0.08
22,AAGTGCACGTGCTATG,-0.08
23,GCTGGCACGTGGGGTG,-0.27
